This is one part of the list.
target: T1, LXRb (Homo sapiens) (UniProt P55055); conditions: 270 nM, no RXRa, PBS pH 7.4, 2% milk, 0.02% Triton X-100, 1 mM DTT, BSA, 0.4 mg/ml salmon testes DNA; double strand, one strand shown
T1 sequence: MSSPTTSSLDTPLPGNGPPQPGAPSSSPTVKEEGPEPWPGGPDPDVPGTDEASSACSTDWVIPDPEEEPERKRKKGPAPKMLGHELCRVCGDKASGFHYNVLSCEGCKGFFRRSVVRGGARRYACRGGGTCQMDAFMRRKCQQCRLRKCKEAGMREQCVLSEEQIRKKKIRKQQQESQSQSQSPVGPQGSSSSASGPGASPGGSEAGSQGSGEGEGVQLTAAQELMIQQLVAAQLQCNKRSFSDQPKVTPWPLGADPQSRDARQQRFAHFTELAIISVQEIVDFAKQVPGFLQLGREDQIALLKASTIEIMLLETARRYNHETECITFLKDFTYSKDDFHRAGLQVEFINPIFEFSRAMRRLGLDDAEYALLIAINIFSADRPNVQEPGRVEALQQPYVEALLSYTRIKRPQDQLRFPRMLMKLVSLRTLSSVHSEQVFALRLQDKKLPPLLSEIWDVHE

Row | Sequence | binding signal (PBM z-score against 500 random probes)
1 | GCTCGTGTAGGTTACGGGGGCATTCAGGGATGAAGAGCGATTGACAGCGTAGAATGAAGG | 12.7
2 | GCGTGGCTCAAAGTCATCAAGAGCATTCACATTGGAGCGATTGACAGCGTAGAATGAAGG | -0.51
3 | GCATGTCAATGGTAGTTTGATGGGAATAGTATTGAGGCGATTGACAGCGTAGAATGAAGG | 0.24
4 | GCATGAGCTGAGATCACAACACTGCACTCCATCCTGGCGATTGACAGCGTAGAATGAAGG | -0.23
5 | GCACTACTACTGCTGTTGAGAAACCTGCATTGTGGCGCGATTGACAGCGTAGAATGAAGG | 0.49
6 | GCCTATGTAGGTTAGGGGGGTCATTCAGTTTGAAAGGCGATTGACAGCGTAGAATGAAGG | 14.1
7 | GCCCGAGTAGGTTACGAGGGGGGATTCAGTGCGAATGCGATTGACAGCGTAGAATGAAGG | 11.9
8 | GCCAAGAATCAGACTCTTAAGTAGATGCCTGTAGCTGCGATTGACAGCGTAGAATGAAGG | -0.28
9 | GCCAAAGACAGCTTTGCAAGGCCACTTCTGTTTGCTGCGATTGACAGCGTAGAATGAAGG | -0.08
10 | GCTGGAAGATGAAGAAGAACTATTGCTCGATGGAGAGCGATTGACAGCGTAGAATGAAGG | -0.4
11 | GCTGGAATCCTAGTGCTTTGGGAGGCTGAGGCTGGAGCGATTGACAGCGTAGAATGAAGG | -0.73
12 | GCGCCACCAGGCCTGCCTTACAAGAGCTCCTGAAGAGCGATTGACAGCGTAGAATGAAGG | -0.01
13 | GCTCGAGTAGGTTAGGGGGGCATTCAGGGATGAAGAGCGATTGACAGCGTAGAATGAAGG | 14.8
14 | GCCTATGTAGGTTGAGGGGGTCATTCAGTTTGAAAGGCGATTGACAGCGTAGAATGAAGG | 10.8
15 | GCATCTGCATAGAGCTAGAGCTATTGATTCAAAGAGGCGATTGACAGCGTAGAATGAAGG | -1.12
16 | GCTCCCAGCCACTCAGGAGGCTGAGGCAGGAGAATTGCGATTGACAGCGTAGAATGAAGG | -2.09
17 | GCCCCAGATGACGGGTTGATATGGGCAGCAAACCGCGCGATTGACAGCGTAGAATGAAGG | -0.86
18 | GCCCGAGTAGGTTATGAGGGGGCATTCAGTGCGAATGCGATTGACAGCGTAGAATGAAGG | 9.2
19 | GCAAGTTGCAGGTTGACCTACGGTGGTGGTGGTCTAGCGATTGACAGCGTAGAATGAAGG | 0.07
20 | GCGAGGTTGCAGTGAGCCAAGATTGCACCACTGCACGCGATTGACAGCGTAGAATGAAGG | -1.36
21 | GCTCCCTGCCAGCCCTGGTCTGAAGCAAGCCTAGAGGCGATTGACAGCGTAGAATGAAGG | -0.81
22 | GCATACACTTCTGGAGGCCAGAGGTCTGAAATCAAGGCGATTGACAGCGTAGAATGAAGG | -0.45
23 | GCCAATGCCAGCTACCAGGAGGCTGAGGTGTGAGAGGCGATTGACAGCGTAGAATGAAGG | -0.59
24 | GCTAGCTGAGACTACATGCCACCATGCCTGGCTAATGCGATTGACAGCGTAGAATGAAGG | -0.18

From article PMC6555819
